# Measured values reported in the supplement of paper PMC9433436.
# ± gives the standard deviation of the averaged measurements. Over roughly 4,100 sequences, “relative kcat/Km (krel) vs genomic leader AAAGAU” has its median near 1.7; the highest 2% begin near 6.5. The list shows a part of the results, in another mix than the full data.
# Target: T1, E. coli RNase P holoenzyme (M1 P RNA + rnpA protein) (UniProt P0A7Y8)
# T1 sequence: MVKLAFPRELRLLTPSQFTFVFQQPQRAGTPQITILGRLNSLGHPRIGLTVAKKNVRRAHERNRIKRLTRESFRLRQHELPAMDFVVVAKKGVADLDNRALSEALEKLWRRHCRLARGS
# Experiment: relative kcat/Km (krel) vs genomic leader AAAGAU (relative (reference leader = 1)); higher = faster RNase P cleavage
# Protocol: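 HTS-Kin: a pool of ptRNA-Met (21C construct) with all 4096 combinations of 5' leader nucleotides N(-6) to N(-1) was processed in vitro by E. coli RNase P (P RNA + rnpA/C5 protein) under multiple-turnover conditions at 37 C, pH 8, 17.5 mM MgCl2. Residual substrate was Illumina-sequenced at several fractions reacted, and relative kcat/Km (krel) was computed by internal competition kinetics, calibrated to the genomic leader (AAAGAU = 1). The listed hexamer is the varied N(-6)..N(-1) leader (DNA letters), and it sits between a fixed 5' stem-loop flank (GCAUGCACGAAAGUGCGUGCUAUGAA) and the mature tRNA-Met starting GGCUACGUAGCUCAGUUGG. Two technical replicates are averaged.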
# [1] = fraction of substrate reacted: ~9-10% (9.79% repeat 1, 9.1% repeat 2)
# [2] = fraction of substrate reacted: ~13-16% (15.68% repeat 1, 13.17% repeat 2)
# [3] = fraction of substrate reacted: ~26-29% (28.66% repeat 1, 26.4% repeat 2)
Sequence,relative kcat/Km [1],relative kcat/Km [2],relative kcat/Km [3]
AAGGCG,0.605 ± 0.13,0.438 ± 0.18,0.43 ± 0.023
GCACCC,,,1.92 ± 1.6
AATACA,1.91 ± 0.78,1.7 ± 0.041,2.02 ± 0.66
TCTTTC,2.38 ± 0.92,2.65 ± 1.3,3.46 ± 1.2
GTCGTA,2.55 ± 1.1,2.7 ± 0.23,3.88 ± 0.79
ATGTTA,1.74 ± 0.75,2.13 ± 0.6,2.8 ± 0.81
GAATAG,1.46 ± 0.94,1.08 ± 0.3,2.88 ± 1.1
AGAATC,2.63 ± 1.3,2.27 ± 0.42,2.61 ± 0.55
TTCAAG,2.98 ± 2.4,3.38 ± 0.47,5.77 ± 2
TATCCA,1.63 ± 0.78,1.64 ± 0.45,2.14 ± 0.7
ATCCAT,3.89 ± 0.97,4.72 ± 1.4,7.14 ± 3.2
GGCGCA,1.73 ± 0.44,2 ± 1.2,3.02 ± 1.3
ATGGAG,,,0.809 ± 0.47
ACAGCA,1.85 ± 1.1,1.22 ± 0.039,1.4 ± 0.034
AGCATG,0.917 ± 0.78,,1.29 ± 0.051
TTTTGC,3.65 ± 1.3,4.42 ± 1.1,6.61 ± 2.8
AAAATT,2.26 ± 1.2,1.53 ± 0.063,1.82 ± 0.3
ATGCCC,1.56 ± 0.57,0.97 ± 0.076,1.42 ± 0.2
GCGCCC,1.08 ± 0.69,1.12 ± 0.58,1.57 ± 0.31
CATTTC,2.59 ± 0.64,2.31 ± 0.88,4.06 ± 1.9
CCGCTA,0.931 ± 0.051,1.43 ± 0.35,1.19 ± 0.28
ATACCT,1.52 ± 0.97,1.67 ± 0.38,2.07 ± 1.1
GTTCCC,2.21 ± 1.7,1.92 ± 0.23,2.29 ± 0.42
CGGCGC,1.53 ± 0.046,1.27 ± 0.53,1.42 ± 0.12
CCTATT,1.95 ± 0.33,2.2 ± 0.23,2.65 ± 0.78

Sequence,relative kcat/Km [1],relative kcat/Km [2],relative kcat/Km [3]
GGCCTT,1.87 ± 0.27,2.27 ± 0.52,2.46 ± 0.65
TCTATC,2.25 ± 0.66,2.61 ± 0.13,3.31 ± 1.3
ACCCGG,0.242 ± 0.034,,
GGAGTC,1.02 ± 0.45,0.6748 ± 0.0035,1.1 ± 0.081
CTGTTA,2.76 ± 1.4,1.44 ± 1.1,2.19 ± 0.06
CGACAC,1.85 ± 0.28,2.88 ± 0.2,4.4 ± 1.3
TCACTT,1.9 ± 0.32,2.82 ± 0.93,3.13 ± 1
TAGCAT,2.34 ± 0.67,2.96 ± 0.51,4.57 ± 1.4
GTGGGT,,,1.82 ± 1.2
TGTAGC,2.67 ± 1.2,2.86 ± 0.29,4.77 ± 2.2
AAGTGA,1.39 ± 0.31,1.75 ± 0.17,2.17 ± 0.18
TAGCCG,,,1.05 ± 0.32
GACCAC,2.53 ± 1.4,3.51 ± 0.65,5.22 ± 1.2
AATTCT,1.82 ± 0.34,2.71 ± 0.24,3.32 ± 1.4
CGGGCT,1.64 ± 0.38,,0.723 ± 0.33
TTTTCG,,0.675 ± 0.51,1.74 ± 0.13
CCAAGT,1.25 ± 0.78,0.657 ± 0.038,
ATAAAT,1.89 ± 0.56,2.35 ± 0.23,2.97 ± 1.1
CGGTTA,,0.699 ± 0.1,0.639 ± 0.093
CGCTTT,2.41 ± 0.032,3.39 ± 1.4,4.89 ± 1.9
TCCGAA,5.05 ± 1.9,6.23 ± 1.9,9.05 ± 3.9
GCACCA,0.66 ± 0.35,,0.801 ± 0.14
CCGATC,1.48 ± 0.57,1.14 ± 0.48,1.96 ± 0.31
GGAAGC,1.73 ± 0.69,1.38 ± 0.91,2.587 ± 0.025
CACTAC,4.63 ± 0.25,6.82 ± 2.5,8.23 ± 3.5
